Here are results for 73 sequences from the BET-seq Pho4 binding data (Le et al. 2018).

The list shows a part of the results. These are noisy estimates, calculated here from bound and input reads.

The target in the assay is T1, Pho4 (S. cerevisiae) (UniProt P07270).
T1 sequence: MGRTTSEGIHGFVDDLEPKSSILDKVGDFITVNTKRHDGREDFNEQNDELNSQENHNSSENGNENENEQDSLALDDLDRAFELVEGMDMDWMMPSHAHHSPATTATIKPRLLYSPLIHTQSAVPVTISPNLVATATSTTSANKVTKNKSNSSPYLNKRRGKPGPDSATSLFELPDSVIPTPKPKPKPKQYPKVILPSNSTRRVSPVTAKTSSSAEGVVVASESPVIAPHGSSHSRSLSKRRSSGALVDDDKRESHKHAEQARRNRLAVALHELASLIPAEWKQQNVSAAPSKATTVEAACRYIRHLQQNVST
The experiment in a line: relative binding free energy (BET-seq); higher = weaker binding. The following applies: reference: library average.
In the case of AAATTCACGTGGTGTT, the “relative binding free energy” value is 1.51 kJ/mol.
To TGTGGCACGTGGTTCA belongs -0.418 kJ/mol; to TGTGGCACGTGCTCGG, -1.05 kJ/mol.
The same measure for TACGGCACGTGGGGTC: -0.586 kJ/mol; for GTTTTCACGTGCGGGG: 1.34 kJ/mol; for AGGTTCACGTGTGTTT: 1.13 kJ/mol.
On to TGTTACACGTGGCTTG, for which the “relative binding free energy” value was -0.46 kJ/mol.
To GGTTTCACGTGTCTTC belongs 1.92 kJ/mol; to GTTTACACGTGCGTCG, 0.377 kJ/mol; to CGGAACACGTGTGTGT, -0.209 kJ/mol.
To ATTTTCACGTGAGACT belongs 2.22 kJ/mol.
On to GGTCGCACGTGATTGA, for which the “relative binding free energy” value is 0.753 kJ/mol.
Take TATTTCACGTGTCGTC: the “relative binding free energy” value was determined as 0.962 kJ/mol.
For GTTTACACGTGGGGTT, the “relative binding free energy” value stood at 0.0418 kJ/mol.
Consider AGTTACACGTGAAAGG, for which the “relative binding free energy” value worked out at 1.42 kJ/mol.
The same measure for GCATACACGTGGTTGG: -0.126 kJ/mol.
For AGTTGCACGTGGGAGG, the “relative binding free energy” value is -0.293 kJ/mol.
The same measure for TTAAACACGTGTGATA: 0.293 kJ/mol; for GTTCACACGTGAGGAT: 2.09 kJ/mol; for TAGTACACGTGTAGTC: 0.628 kJ/mol.
The same measure for GTCAACACGTGGGGAA: -0.167 kJ/mol; for GAGGGCACGTGGATAG: -0.502 kJ/mol.
To TTGGGCACGTGAGAGA belongs 0.711 kJ/mol; to ATATACACGTGATGTT, 0.167 kJ/mol.
AGAAGCACGTGGGTTA: the “relative binding free energy” value was -0.293 kJ/mol.
The same measure for ATAAGCACGTGTTTTT: -0.167 kJ/mol.
The same measure for GGTGTCACGTGAGGCG: 1.21 kJ/mol; for GGAGGCACGTGGGGAT: -0.628 kJ/mol.
Regarding GTGTTCACGTGTTTAC, the “relative binding free energy” value came out at 1.3 kJ/mol.
With CATGGCACGTGATATG, the “relative binding free energy” value was -0.167 kJ/mol.
Regarding AGTAGCACGTGGGGAG, the “relative binding free energy” value was -1.05 kJ/mol.
As for TGGGTCACGTGGACAG, the “relative binding free energy” value worked out at 0.209 kJ/mol.
On to AAGGACACGTGCGGGG, for which the “relative binding free energy” value was -0.335 kJ/mol.
On to TCTATCACGTGTGCGT, for which the “relative binding free energy” value stood at 0.879 kJ/mol.
On to GGTTACACGTGGTCAT, for which the “relative binding free energy” value is -0.126 kJ/mol.
For the sequence GTGATCACGTGACGGT, the “relative binding free energy” value came to 1.26 kJ/mol.
The same measure for TCAGGCACGTGCGGTG: -1.09 kJ/mol.
As to GTTTTCACGTGGTCCG, the “relative binding free energy” value worked out at 1.17 kJ/mol.
To TTTATCACGTGCACGT belongs 0.586 kJ/mol; to TAGGTCACGTGATGAA, 1.17 kJ/mol.
Regarding GGGCTCACGTGGCAGT, the “relative binding free energy” value worked out at 1.59 kJ/mol.
For the sequence TCGGACACGTGTTTTG, the “relative binding free energy” value is -0.126 kJ/mol.
The same measure for TTGTACACGTGTCGGC: 0.92 kJ/mol; for TGCTCCACGTGGGAGG: 0.251 kJ/mol.
The same measure for CTGTACACGTGTCGGG: 1.09 kJ/mol; for CAAGACACGTGTGGTG: -0.293 kJ/mol.
To TTTGTCACGTGAGTGT belongs 1.21 kJ/mol.
Turning to TATGTCACGTGGGAGC, the “relative binding free energy” value was -0.167 kJ/mol.
As for GCAGGCACGTGGGTTA, the “relative binding free energy” value is -1.13 kJ/mol.
To TGGTTCACGTGGGTAT belongs 0.879 kJ/mol.
To TTAGCCACGTGATGTG belongs -0.0418 kJ/mol; to TACAGCACGTGGGAGT, -0.92 kJ/mol; to TTAGCCACGTGTATAT, 0.167 kJ/mol.
To AGTGACACGTGTGGTT belongs 0.293 kJ/mol.
For the sequence TTAGACACGTGGCGGG, the “relative binding free energy” value was -0.251 kJ/mol.
Consider GCCGTCACGTGTGGTT, for which the “relative binding free energy” value was determined as 1.21 kJ/mol.
For the sequence TAAGTCACGTGGATTG, the “relative binding free energy” value was 0.251 kJ/mol.
To TTGGGCACGTGCTTTA belongs -0.711 kJ/mol.
The same measure for ATATTCACGTGTGTCG: 0.92 kJ/mol; for GTAAACACGTGATGTG: 0.669 kJ/mol; for TTGATCACGTGTTTTC: 0.126 kJ/mol.
On to ACCGGCACGTGTAGTG, for which the “relative binding free energy” value is 0.0418 kJ/mol.
The same measure for GCAAACACGTGGGGTT: -0.586 kJ/mol; for GTCGTCACGTGGCGTG: 0.167 kJ/mol; for GAGGACACGTGAGCGG: 0.711 kJ/mol.
As to TTAGGCACGTGGAGCT, the “relative binding free energy” value is -0.502 kJ/mol.
As for TAATTCACGTGGGCTA, the “relative binding free energy” value was found to be 0.669 kJ/mol.
To CAGGTCACGTGCGTTT belongs 0.0418 kJ/mol; to GGATCCACGTGTGTGT, 0.711 kJ/mol.
The same measure for ATTCGCACGTGGATAT: 0.209 kJ/mol; for AGCGGCACGTGAGGTT: 0.837 kJ/mol.
The same measure for AGTTGCACGTGGTTGT: -0.293 kJ/mol.
As to CATGCCACGTGAGGGG, the “relative binding free energy” value is 0.167 kJ/mol.
